# The list shows a part of the results. The energies were worked out here from pooled read counts, against the library average; single values are noisy.
# Target: T1, Pho4 (S. cerevisiae) (UniProt P07270)
# T1 sequence: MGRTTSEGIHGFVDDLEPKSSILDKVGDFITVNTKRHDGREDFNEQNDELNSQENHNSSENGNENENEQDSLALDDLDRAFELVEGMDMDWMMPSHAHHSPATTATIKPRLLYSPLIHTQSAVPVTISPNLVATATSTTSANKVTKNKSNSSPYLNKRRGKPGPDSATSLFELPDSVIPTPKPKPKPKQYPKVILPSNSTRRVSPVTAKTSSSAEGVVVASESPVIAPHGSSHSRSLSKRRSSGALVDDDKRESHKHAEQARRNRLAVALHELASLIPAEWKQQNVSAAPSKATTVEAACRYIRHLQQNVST
# Assay: relative binding free energy (BET-seq); higher = weaker binding
# Conditions: reference: library average
row,Sequence,relative binding free energy [kcal/mol]
1,AGTTACACGTGGGTTT,-0.1
2,GGTGGCACGTGTATAT,-0.05
3,GAAGTCACGTGGTGCA,0.11
4,CGGCTCACGTGTAGGT,0.19
5,GGTTACACGTGGTATG,0.07
6,TTTATCACGTGTTGGT,0.13
7,ATTCACACGTGTTGGA,0.19
8,ACGTGCACGTGGGAAT,-0.07
9,TTCGTCACGTGTGGGA,0.15
10,AAAGGCACGTGGAATG,0
11,TTGTCCACGTGGGTCT,-0.06
12,TTATTCACGTGGCGCA,0.22
13,TTTGCCACGTGGATCG,0.01
14,GTGGGCACGTGAGTGC,0.15
15,ATTTACACGTGGTGTG,0.06
16,TCTTACACGTGGGGTT,-0.02
17,GTTGCCACGTGTTGGG,0.02
18,GTTTTCACGTGTTATA,0.3
19,TTGTGCACGTGCGTGC,-0.14
20,CGGGCCACGTGTGGGC,0.07
21,TGGGTCACGTGTTCCA,0.09
22,CTGAGCACGTGGTGGG,-0.16
23,GTAGTCACGTGGTGAA,0.12
24,AAGGGCACGTGTTGGT,-0.11
25,AGAATCACGTGAGTTA,0.42
26,TGTTGCACGTGATAAC,0.22

row,Sequence,relative binding free energy [kcal/mol]
1,TAGATCACGTGATGAG,0.35
2,CTGCACACGTGGAGGG,0.02
3,ATGAACACGTGGTATG,-0.1
4,GATAACACGTGTGTGT,0
5,TTAGCCACGTGGGTTT,-0.32
6,TTTTTCACGTGTGGGC,0.37
7,TTGCGCACGTGGTACG,-0.2
8,AGTGTCACGTGTTGCG,0.13
9,TGGGACACGTGGCTTC,0.08
10,AAGGGCACGTGTTTGC,-0.18
11,TGCGTCACGTGTATCG,0.02
12,TAGCTCACGTGGGGAG,0
13,TCTTACACGTGTTTTG,0.01
14,GCTGGCACGTGTGTTG,-0.01
15,GTTCGCACGTGGTCTA,-0.12
16,GCATTCACGTGTTGAG,0.43
17,TGGTTCACGTGCTAGC,0.39
18,GGTATCACGTGCATTG,0.18
19,ATTGCCACGTGATTAG,0.14
20,GATATCACGTGATATG,0.15
21,TAGGACACGTGCGCGT,0
22,GTGGTCACGTGCGGGG,0.08
23,GGAGTCACGTGGTTGG,0.1
24,AGTGCCACGTGGAGGC,-0.08
25,TGGATCACGTGAAGGA,0.4
26,TATTTCACGTGGAGGT,0.22

row,Sequence,relative binding free energy [kcal/mol]
1,TTGTGCACGTGGGTCT,-0.29
2,TTGGCCACGTGCAGTT,-0.03
3,ATTAGCACGTGTCTGG,-0.13
4,GGAGTCACGTGTGGTC,0.16
5,TAGAGCACGTGCGTTG,-0.13
6,AGGATCACGTGTGGGA,0.35
7,GTGTACACGTGTTCGT,0.14
8,GTGGACACGTGGTTAA,0.07
9,CGGGTCACGTGGCTCG,0.06
10,TGGGCCACGTGCTTGG,-0.18
11,TTCGGCACGTGGGTAG,-0.07
12,AGTAGCACGTGTTCGT,-0.04
13,TGAAACACGTGTGTAA,0.08
14,GTTCACACGTGCGGGT,0.09
15,GGGGACACGTGTGAGT,0.19
16,TTACGCACGTGAGTGG,0.14
17,GTGTACACGTGCATGG,-0.07
18,TGGAGCACGTGGTATA,-0.07
19,TGTTGCACGTGATGGA,0.26
20,TTGCGCACGTGGATGT,-0.04
21,TATATCACGTGGTACG,0.1
22,AGAATCACGTGGGAGG,0.03
23,GCGGTCACGTGCGGTA,0.17
24,AGTCTCACGTGGATTG,0.11
25,ACTTTCACGTGGGGTT,0.02
26,AAGTTCACGTGTTTCA,0.42

row,Sequence,relative binding free energy [kcal/mol]
1,ATGCGCACGTGAGGAA,0.19
2,CATGTCACGTGTGCTG,-0.02
3,TTCGTCACGTGGGAAG,-0.08
4,TTTCGCACGTGGAGAA,0.16
5,AGGAACACGTGTTGAG,0.02
6,GTGAGCACGTGGGCCG,-0.14
7,TGAGTCACGTGAGACG,0.27
8,GTTTTCACGTGAGAGG,0.46
9,TAGAGCACGTGTATCG,-0.07
10,GTATTCACGTGTAGTT,0.25
11,TTTATCACGTGAGGTA,0.26
12,AGACTCACGTGTAGGG,0.15
13,AGGTTCACGTGACCGG,0.46
14,TGGTGCACGTGTTTGC,-0.06
15,GGTTGCACGTGGGAGG,-0.1
16,TAAAGCACGTGGATGG,0.05
17,AGTTCCACGTGTTGAT,0.08
18,GGTAGCACGTGGTAGC,-0.05
19,GTTGTCACGTGCGTTA,0.02
20,GTAGGCACGTGTCGTC,0.02
21,GGAAGCACGTGAGCGT,0.03
22,TGGATCACGTGCGTAT,0.15
23,TGTCTCACGTGCGAGG,0.15
24,TCATTCACGTGGTGCG,0.4
25,CGGGGCACGTGGATGC,-0.13
26,TTGTCCACGTGGGGCA,-0.19

row,Sequence,relative binding free energy [kcal/mol]
1,TTAGTCACGTGGATGA,0.16
2,GGTCGCACGTGGGTTT,-0.02
3,GTTTTCACGTGGGGAG,0.21
4,GTTTTCACGTGGAGCT,0.29
5,TTATGCACGTGATATG,-0.15
6,TCAAGCACGTGTATGG,-0.06
7,GTTTGCACGTGGTCGG,0.07
8,TAGGCCACGTGTTATT,-0.01
9,GGGATCACGTGAACGG,0.39
10,GGACACACGTGAGGGT,0.19
11,AGGAGCACGTGAGAGT,0.32
12,CCTATCACGTGGGGTG,0.05
13,ACTAACACGTGTGGTG,0
14,TGAATCACGTGGAAGG,0.04
15,GTGAGCACGTGCGAGG,-0.07
16,TTTGGCACGTGCGAAG,-0.01
17,AAGAGCACGTGTGGCG,0
18,ATCTACACGTGAAGGT,0.32
19,TGTTTCACGTGTGGGA,0.27
20,TCTGGCACGTGTTATT,-0.06
21,GTGGGCACGTGGCGCG,-0.13
22,TTGTACACGTGTGAAG,0.11
23,GACGTCACGTGGCAGG,0.13
24,AGGTACACGTGGTCAG,-0.18
25,TTGATCACGTGTTTGC,0.15
26,TAGTCCACGTGTGGGC,0.12

row,Sequence,relative binding free energy [kcal/mol]
1,GGTGGCACGTGATGTC,0.15
2,TGAAGCACGTGTGGCT,0.04
3,AAATACACGTGATGGT,0.12
4,TCGGGCACGTGTGTGC,-0.01
5,TGAATCACGTGTAGTC,0.42
6,AAGGCCACGTGTAGTG,0.02
7,TGGGGCACGTGGGGGA,-0.2
8,ATGAACACGTGGTGAT,-0.09
9,GTGTTCACGTGGAACG,0.29
10,AAGCTCACGTGTGAGT,0.3
11,TGGGGCACGTGCGAAT,-0.09
12,AATATCACGTGATGGT,0.2
13,TTAGTCACGTGAGTCG,0.2
14,CTATTCACGTGGGGGT,0.11
15,TTTGGCACGTGGGAGG,-0.12
16,TCGGTCACGTGGTTTC,0.08
17,TTTGTCACGTGTGCGA,0.07
18,AGATTCACGTGATAAT,0.38
19,TCGTGCACGTGTATGG,-0.11
20,CAGTGCACGTGAAGGT,0.19
21,ATTGGCACGTGGTGGT,-0.11
22,GTGAGCACGTGCTGGG,-0.14
23,ATGAGCACGTGAGCGT,-0.03
24,GCATACACGTGGTGTG,0
25,GCAGTCACGTGATGTT,0.19
26,TTTCGCACGTGATTTG,0.13

row,Sequence,relative binding free energy [kcal/mol]
1,ATCAGCACGTGTATGT,0
2,AGGCACACGTGTGGGA,0
3,TTTGTCACGTGCAGTG,-0.05
4,TTTTTCACGTGTGACG,0.38
5,ATGCGCACGTGGTACG,-0.16
6,TAAGGCACGTGTGGCA,-0.2
7,GAGGTCACGTGCAGGT,0.2
8,CGTGTCACGTGCTAGG,0.05
9,GGGTGCACGTGAAAAT,0.29
10,TTATCCACGTGTAGGA,0.09
11,AGTTTCACGTGTCGTT,0.15
12,AGAGTCACGTGTGCGG,-0.01
13,AGGCTCACGTGGGAGC,0.22
14,TTGCACACGTGGTTTA,-0.06
15,TCGAGCACGTGTGGGC,-0.04
16,TGGGACACGTGATGGG,0.23
17,ATAGGCACGTGGGTGG,-0.27
18,TCTTTCACGTGGAGTA,0.43
19,TGGGGCACGTGAAGCT,0.11
20,TATTACACGTGTGTGT,0.09
21,CTTTTCACGTGTATAT,0.21
22,TAAGCCACGTGGTTTT,-0.17
23,AGGTACACGTGTGTTG,0.08
24,TTTGGCACGTGCTGGG,-0.06
25,GATTTCACGTGCGGGT,0.34
26,ACATGCACGTGTGGGG,-0.14

row,Sequence,relative binding free energy [kcal/mol]
1,AGGGGCACGTGACGTG,-0.01
2,CTATACACGTGAGGTA,0.21
3,GGGCGCACGTGTTGCG,-0.1
4,GTGGGCACGTGGGTGT,-0.12
5,GTTGCCACGTGAGTTT,0.21
6,AGTGACACGTGGTGGC,-0.06
7,TAGTGCACGTGGTCTA,-0.17
8,AAGAACACGTGTTGGA,0.14
9,TGCTGCACGTGTGCTT,-0.04
10,GTTGTCACGTGTACTT,0.26
11,TTATGCACGTGTCTGA,0.04
12,TAAGTCACGTGGTTTT,0.14
13,CTTGGCACGTGGGCTA,-0.19
14,TCGGACACGTGTGATT,0.3
15,AGAAACACGTGGTGTA,-0.02
16,AATGACACGTGGGGCG,0.01
17,GGCAGCACGTGGGTCG,-0.23
18,CACGTCACGTGGGGTG,-0.16
19,TTTTACACGTGTTTGT,0.1
20,TGTAGCACGTGTGTTT,0.04
21,AGAGTCACGTGAGTAT,0.12
22,TGGTACACGTGGCCTT,-0.05
23,AAAGTCACGTGTAGGC,0.13
24,AGAATCACGTGGGAGT,0.08
25,TCTATCACGTGGGTCG,0.04
26,CGTTTCACGTGGTCAG,0.11

row,Sequence,relative binding free energy [kcal/mol]
1,GTGGGCACGTGGTGGG,-0.05
2,TAAGTCACGTGTCGGT,0.11
3,GGGAACACGTGGAATG,0.09
4,CATGTCACGTGTATAT,0.07
5,GTTTGCACGTGACTGA,0.21
6,TGAAGCACGTGTTAAG,-0.01
7,TTCTGCACGTGTAATT,0.11
8,CTGGTCACGTGGGGCA,-0.03
9,CCGGCCACGTGGGGGT,-0.33
10,GATGGCACGTGGAGAG,-0.07
11,GGTACCACGTGGGTAT,-0.22
12,GTACACACGTGTATGT,0.14
13,TAGTTCACGTGAGATA,0.43
14,TGCGGCACGTGGCGCG,-0.17
15,GGTTACACGTGAGTTG,0.24
16,TAGCGCACGTGGGGAA,-0.23
17,ATTTTCACGTGAAATA,0.35
18,TTTGTCACGTGCGGGG,-0.03
19,GTGTGCACGTGGGGCA,-0.06
20,CGCGGCACGTGTTGTG,-0.27
21,TAAGTCACGTGTGGTC,0.01
22,CGAGTCACGTGGGCGT,-0.03

# — the BET-seq Pho4 binding data (Le et al. 2018)
